Out of some 310,000 compounds screened, about 14,000 (4.5%) showed an effect of 50% or more. Effects have a minus sign here. Some of the results follow.
Biological target: human ether-à-go-go-related gene (hERG) potassium channel (human, UniProt Q12809)
Test: primary screen, population patch clamp on CHO cells stably expressing hERG
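Note: peak tail current of the secondary pulse compared with the same well before compound.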

Sequence of human ether-à-go-go-related gene (hERG) potassium channel (Q12809 whole entry, looked up): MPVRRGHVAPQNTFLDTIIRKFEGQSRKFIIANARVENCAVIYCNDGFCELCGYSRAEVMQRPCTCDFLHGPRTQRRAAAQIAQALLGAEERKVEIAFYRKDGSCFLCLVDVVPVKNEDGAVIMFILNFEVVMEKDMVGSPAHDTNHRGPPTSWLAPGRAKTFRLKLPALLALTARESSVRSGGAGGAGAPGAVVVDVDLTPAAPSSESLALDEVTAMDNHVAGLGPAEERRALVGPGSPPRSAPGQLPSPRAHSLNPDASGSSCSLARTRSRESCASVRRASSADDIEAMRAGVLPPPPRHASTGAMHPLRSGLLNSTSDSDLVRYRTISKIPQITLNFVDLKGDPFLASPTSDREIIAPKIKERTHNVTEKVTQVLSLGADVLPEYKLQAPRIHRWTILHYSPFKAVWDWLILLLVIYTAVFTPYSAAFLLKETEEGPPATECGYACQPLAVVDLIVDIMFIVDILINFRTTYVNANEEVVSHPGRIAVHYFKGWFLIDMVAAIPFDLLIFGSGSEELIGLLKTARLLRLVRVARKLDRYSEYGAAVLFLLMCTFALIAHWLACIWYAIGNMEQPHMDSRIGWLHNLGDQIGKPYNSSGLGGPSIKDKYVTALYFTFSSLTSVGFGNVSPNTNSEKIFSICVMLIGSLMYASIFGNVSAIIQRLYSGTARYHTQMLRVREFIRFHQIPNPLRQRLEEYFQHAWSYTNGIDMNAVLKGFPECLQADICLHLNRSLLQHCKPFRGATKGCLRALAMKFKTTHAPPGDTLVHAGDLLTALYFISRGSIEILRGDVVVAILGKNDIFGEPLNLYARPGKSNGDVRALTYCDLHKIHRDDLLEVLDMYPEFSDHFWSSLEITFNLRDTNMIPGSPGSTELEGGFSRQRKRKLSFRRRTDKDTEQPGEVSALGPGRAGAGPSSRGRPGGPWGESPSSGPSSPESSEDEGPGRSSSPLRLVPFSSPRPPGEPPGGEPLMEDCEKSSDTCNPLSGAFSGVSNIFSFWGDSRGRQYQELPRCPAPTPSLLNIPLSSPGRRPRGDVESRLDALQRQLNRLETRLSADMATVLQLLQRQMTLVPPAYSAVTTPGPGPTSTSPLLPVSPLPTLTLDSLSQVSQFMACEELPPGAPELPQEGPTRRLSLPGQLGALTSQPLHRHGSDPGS

| Structure (SMILES) | hERG current change (%, negative = inhibition) at 10uM [%] |
| --- | --- |
| Cc1ccc(S(=O)(=O)N2CCN(C(=O)c3ccccc3Cc3ccccc3)CC2)c(C)c1 | 4.42 |
| CCCCN(C(=O)c1cccc(S(=O)(=O)N2CCCC2)c1)c1c(N)n(CCC)c(=O)[nH]c1=O | 4.89 |
| CC1Nc2ccccc2C(=O)N1NS(C)(=O)=O (centres unmarked) | 19.2 |
| CCc1nnc(N2C(=O)c3ccc(Oc4ccc([N+](=O)[O-])cc4)cc3C2=O)s1 | -22.5 |
| COc1ccccc1NC(=O)CNC(=O)Cn1cnc2sc(C)c(C)c2c1=O | 28.1 |
| Cc1ccc(NC(=O)CN(C)C(=O)c2cc3ccccc3o2)cc1 | 12.5 |
| CCC(=O)Nc1nc2ccccc2n1Cc1ccccc1Cl | 15.6 |
| COC(=O)c1cccc(NS(C)(=O)=O)c1C | 8.68 |
| Cc1nc(CS(=O)c2ccc(Cl)cc2)cc(NCc2ccc(Cl)cc2Cl)n1 (centres unmarked) | -20 |
| O=C(CN1CCC(O)(c2ccccc2F)CC1)NCCc1c[nH]c2ccccc12 | -4.28 |
| Cc1cc2c(cc1S(=O)(=O)CCC(=O)NCc1ccccc1)OCC(=O)N2 | -4.34 |
| CC(=O)Nc1ccccc1C(=O)C(=O)Nc1ccc(C(=O)NCC2CCCO2)cc1 (centres unmarked) | 29.2 |
| O=C(NNC1=NS(=O)(=O)c2ccccc21)c1cccc([N+](=O)[O-])c1 | 15 |
| Cc1oc(-c2cccs2)[n+]([O-])c1C.Cl | -3.68 |
| Cn1nc(C(=O)N2CCN(c3ccccc3F)CC2)c2c1-c1ccccc1S(=O)(=O)C2 | -21.2 |
| CC1CN(C(=O)c2ccc(NS(=O)(=O)c3ccc(F)c(F)c3)cc2)CC(C)O1 (centres unmarked) | -3.83 |
| Cc1ccc(Cl)cc1NC(=O)CN1CCN(C(=O)C2CCCO2)CC1 (centres unmarked) | -29.8 |
| COc1ccc(NC(=O)c2ccc(NC(=O)CN(C)CC(=O)Nc3c(C)cccc3C)cc2)cc1 | 6.59 |
| CC(C)(C)c1ccc(C(=O)NCC(=O)OCC(=O)NC(=O)NC2CCCC2)cc1 | -22.6 |
| Cc1ccc(CC2(O)CC(C)N(C)CC2C)c(C)c1 (centres unmarked) | -0.00482 |
| O=C(/C=C\c1ccc2c(c1)OCO2)Nc1c2c(nn1-c1ccc(Cl)cc1)CSC2 | 5.12 |
| CCOC(=O)c1sc2nc(N3CCOCC3)c3c(c2c1N)CCN(Cc1ccccc1)C3 | -11.4 |
| CC1Cc2ccccc2N1C(=O)CSc1nnnn1C (centres unmarked) | -5.61 |

| Structure (SMILES) | hERG current change (%, negative = inhibition) at 10uM [%] |
| --- | --- |
| CCn1cc(Br)c(C(=O)NCc2ccco2)n1 | 16 |
| O=C(NC(=O)N1CCCc2ccccc21)c1ccccc1 | 1.37 |
| C=CCNC(=O)c1cnn(-c2ccccc2)c1-c1ccccc1 | 10.4 |
| CC1=C(C(=O)NC(C)c2ccc3c(c2)OCCO3)C2(CCC(C)CC2)OC1=O (centres unmarked) | 0.419 |
| CCOc1ccc(NC(=O)Nc2ccc3nccnc3c2)cc1 | 0.442 |
| COc1ccc(-c2csc(N)n2)cc1F | 28 |
| CC(C)(C)N1C(=O)c2ccc(C(=O)NCc3ccco3)cc2C1=O | -5.45 |
| COc1ccc(-n2nnc3c(SCC(=O)NCC4CCCO4)ncnc32)cc1 (centres unmarked) | -8.74 |
| O=C(Nc1nnc(SCC(=O)N2CCCCC2)s1)C1CCCCC1 | 10.8 |
| CC(=O)N(C)c1ccc(NC(=O)c2ccccc2C(=O)O)cc1 | -0.347 |
| CCN=C1SC(C(=O)Nc2cc(Cl)cc(Cl)c2)CC(=O)N1CC (centres unmarked) | 23.5 |
| CCOC(=O)C1=C(c2ccccc2)N2CCS(=O)(=O)N=C2S1 | -7.75 |
| COc1cccc(C2/C(=C(/O)c3ccc4c(c3)CC(C)O4)C(=O)C(=O)N2CC2CCCO2)c1 (centres unmarked) | 11.8 |
| O=c1n(-c2ccccc2)c(=O)n2n1CC(O)C2 | 9.87 |
| CC1=C(C(=O)OCc2ccccc2)C(c2ccc(N(C)C)cc2)NC(=O)N1 (centres unmarked) | 12.3 |
| CCN(CC(=O)NCc1ccc(Cl)cc1)C(=O)CCc1ccccc1 | -58.7 |
| C/C(CC(=O)Nc1cc(Cl)ccc1C)=N\NC(N)=O | 10.7 |
| Cc1ccc(C(=O)Nc2ccc3c(c2)OCO3)cc1 | -4.02 |
| CCc1ccc(C(=O)NNc2ccc(F)cc2F)cc1 | 10.8 |
| COc1cc(C(=O)NCc2ccccc2)ccc1OC(F)F | -14.7 |
| O=C(NCc1ccc(C(=O)N2CCC3(CC2)OCCO3)cc1)c1ccc2c(c1)OCO2 | 1.98 |
| CCN(CCC#N)c1ccc(N2C(=O)CCCC2=O)cc1[N+](=O)[O-] | 24.9 |
| Clc1ccc(C2=Nn3c(nnc3-c3n[nH]c4c3CCC4)SC2)cc1Cl | -6.34 |

| Structure (SMILES) | hERG current change (%, negative = inhibition) at 10uM [%] |
| --- | --- |
| CCC(=O)OCCCCCCOc1ccc(C(=O)O)cc1 | 21.9 |
| Cc1ccc(S(=O)(=O)NCCC(=O)OCn2nnc3ccccc3c2=O)cc1 | -10.3 |
| COc1ccc(S(=O)(=O)N(CC(=O)NC2CC3CCC2C3)c2ccccc2OC)cc1 (centres unmarked) | -25 |
| C/C(=N/NC(=O)c1ccc(Cl)s1)c1ccc(NC(=O)COc2ccc(Cl)cc2)cc1 | 7.1 |
| C=CCOc1cccc(/C=C/c2nc3ccccc3c(=O)[nH]2)c1 | 9.98 |
| CCn1ccnc1C(O)c1cccc2ccccc12 (centres unmarked) | 15.7 |
| CCN(CC)C(=O)c1sc(NC(=O)c2cccnc2)c(C(=O)OC)c1C | -18.6 |
| O=C(c1ccc(N2C(=O)C3CC=C(Cl)CC3C2=O)cc1)N1CCOCC1 (centres unmarked) | 5.13 |
| Cc1ccc(S(=O)(=O)N2CCN(C(=O)Cc3ccccc3)CC2)cc1 | -26.1 |
| CC(=O)C1=C(O)C(=O)N(Cc2ccccc2)C1c1ccccc1F (centres unmarked) | 11.6 |
| CN(CCC#N)C(=O)COC(=O)/C=C/c1ccc2c(c1)OCO2 | 10.7 |
| Cc1ccc(NC(=O)c2ccc(-n3cccn3)c([N+](=O)[O-])c2)cc1C | -2.66 |
| CCOCC(=O)Nc1ccc2c(c1)N(S(=O)(=O)c1cccs1)CCC2 | -16.6 |
| FCCCOc1ccc(-c2nccc(-c3ccc(Br)cc3)n2)cc1 | 16.4 |
| O=C(N/N=C/c1ccc(F)cc1)c1ccc(OCc2ccccc2)cc1 | 21.4 |
| CCOc1ccc(/C=N/Nc2cc(N3CCOCC3)nc(C)n2)c(O)c1 | -2.14 |
| NC(=O)c1ccsc1NC(=O)c1coc2ccccc2c1=O | -2.56 |
| Cc1ccc(NC(=O)c2ccc(S(=O)(=O)NCC3CCCO3)cc2)cc1C (centres unmarked) | 5.89 |
| CCCCCOC(=O)c1ccc(NC(=O)c2ccco2)cc1 | -3.19 |
| CC12C(=O)N(Cc3ccco3)C(=O)C1C1c3ccccc3C2c2ccccc21 (centres unmarked) | -4.41 |
| COc1ccc(-n2nnnc2SCC(=O)Nc2nc3c(s2)CCCC3)cc1 | 9.26 |
| O=C(Nc1nncs1)c1ccc2c(c1)OCO2 | -28.6 |
| COc1ccc(C(=O)NCCCNC(=O)c2ccccn2)cc1Br | -3.18 |

| Structure (SMILES) | hERG current change (%, negative = inhibition) at 10uM [%] |
| --- | --- |
| Cc1nc2c(-c3ccccc3)c(C)nn2c(C)c1CCC(=O)NC(C)CCc1ccco1 (centres unmarked) | -66.6 |
| CC(NS(=O)(=O)c1ccccc1)C(c1cccs1)N1CCN(c2ccccc2)CC1 (centres unmarked) | 0.452 |
| CSCCC(NC(=O)c1ccc(C(C)(C)C)cc1)C(=O)O (centres unmarked) | -0.162 |
| N#C/C(=C\c1cn(-c2ccccc2)nc1-c1cc2ccccc2o1)c1nc2ccccc2[nH]1 | -3.54 |
| COc1ccc(C(=O)N2CCCC2=O)cc1 | 17 |
| Cc1cccc(Cc2ncc(C(F)(F)F)cc2Cl)c1 | 11.3 |
| COc1ccc(COC(=O)C2CC(=O)N(Cc3ccccc3)C2)cc1 (centres unmarked) | -34.1 |
| Cc1ccc2cc(CN(CC(C)C)S(=O)(=O)c3cccc4nonc34)c(=O)[nH]c2c1 | 1.97 |
| O=C(Nc1ccccc1)N1CC=C(c2ccc(F)cc2)CC1 | 12.1 |
| CCOc1ccc2nc(NC(=O)c3ccccn3)sc2c1 | 6.42 |
| CC(C)(C)c1ccc(C(=O)N2CCC(C(=O)NCC3CCCO3)CC2)cc1 (centres unmarked) | -23.6 |
| COc1ccc(NS(=O)(=O)c2ccc(NC(=O)C3CCCO3)cc2)cc1 (centres unmarked) | -9.37 |
| CCOc1cc(C(=O)O)ccc1OCCOc1ccccc1 | 5.62 |
| O=C(NC12CC3CC(CC(C3)C1)C2)C1CC(=O)N(c2ccc(Br)cc2)C1 (centres unmarked) | 7.68 |
| Clc1cccc(Cl)c1C1=NOC(c2nnc(-c3ccccc3)o2)C1 (centres unmarked) | -0.869 |
| CC12Cc3ccc4ccccc4c3C=C1C[N+](C)(C)C2.[Cl-] (centres unmarked) | -2.5 |
| Cc1ccc(S(=O)(=O)NCc2ccc(C(=O)NCCN(Cc3ccccc3)C(C)C)cc2)cc1 | -36.4 |
| Cc1ccc(OCC(=O)NNC(=S)NC(=O)c2ccc(Br)o2)c(C)c1 | 21.6 |
| CC(C)Cn1c(-c2ccc(Br)cc2)c[nH]c1=S | 28.4 |
| CC1CCN(C(=S)Nc2ccc3nc4n(c(=O)c3c2)CCCCC4)CC1 | -55.2 |

From article PMC4336329 (PLoS ONE, 2015)
